Like-named read-outs stand apart in the source and are kept apart here.
How the values were obtained:
[1] = test system: production of TNF-α by LPS-stimulated RAW 264.7 macrophages; test: LPS-induced TNF-α production, mouse TNF-α ELISA; details: M4N 25 μM, LPS 1 μg/ml, 10 hours post induction
[2] = test system: TNF-α production in RAW 264.7 macrophages
[3] = test system: LPS-induced production of PGE2 in RAW 264.7 macrophages; test: LPS-induced PGE2 production, prostaglandin E2 immunoassay; format: cell-based, mouse; details: M4N 25 μM, LPS 1 μg/ml
[4] = test system: LPS-induced PGF2α production by RAW 264.7 macrophages; test: LPS-induced PGF2α production, ELISA; details: M4N 25 μM, LPS 1 μg/ml, 16 h, two experiments
[5] = test system: LPS-induced PGF1α production by RAW 264.7 macrophages; test: LPS-induced PGF1α production, ELISA; details: M4N 25 μM, LPS 1 μg/ml, 16 h, two experiments
[6] = test system: cytokine production by RAW264.7 macrophages; test: Antibody array (mouse inflammatory array-1), cytokines with or without LPS; details: for inhibition at 25 µM: Mus musculus
[7] = test system: production of TNF-α by RAW 264.7 macrophages infected with influenza strain A/WS/33; test: TNF-α production, A/WS/33 infection, low MOI model, ELISA; format: cell-based, mouse
[8] = test system: production of TNF-α by RAW 264.7 macrophages infected with influenza strain A/WS/33; test: TNF-α production, A/WS/33 infection, high MOI model, ELISA; format: cell-based, mouse; details: for suppression of the induction of TNF-α: high MOI time course
[9] = test system: production of PGE2 by RAW 264.7 macrophages infected with influenza strain A/WS/33; test: PGE2 production, A/WS/33 infection, high MOI model, ELISA; format: cell-based, mouse; details: 24 hrs
[10] = test system: influenza-induced production of cytokines by RAW 264.7 macrophages; test: Antibody array (mouse inflammatory array-1), A/WS/33 infection, low MOI; format: cell-based; details: 24 h
[11] = test system: IFN-β production by RAW 264.7 macrophages
[12] = test system: IL-6 production by RAW 264.7 macrophages
[13] = low MOI conditions, 25 μM, no virus

## COc1ccc(C[C@@H](C)[C@@H](C)Cc2ccc(OC)c(OC)c2)cc1OC [M4N, meso-1,4-bis(3,4-dimethoxyphenyl)-2,3-dimethylbutane]
[1]
  maximal inhibition of LPS-induced TNF-α overexpression: 57%
[2]
  inhibition of TNF-α production following induction with A23187: not observed
  inhibition of TNF-α production following induction with PMA: not observed
[3]; 6 hours
  suppression of LPS-induced PGE2 production: 72%
[3]; 10 hours
  suppression of LPS-induced PGE2 production: 64%
[3]; 16 h, confirmatory measurement
  suppression of PGE2 in the supernatants of the PGF1α experiment: more than 90%
[3]; 16 hours
  suppression of LPS-induced PGE2 production: 80%
[4]
  mean % suppression of LPS-induced PGF2α production: 82%
[5]
  mean % suppression of LPS-induced PGF1α production: 41%
[6]; EM-1421 25 μM alone, no LPS
  production of BLC: reduced
  production of IL-1α: increased
  production of IL-4: reduced
  production of IL-9: reduced
  production of IL-12p40p70: reduced
  production of KC: reduced
  production of MIG: increased
  production of MIP-1α: reduced
  production of MIP-1γ: reduced
[6]; EM-1421 25 μM, LPS 1 μg/ml
  increase of LPS-induced production of IL-12p40p70: about 43%
  inhibition of LPS-induced production of G-CSF: did not inhibit
  inhibition of LPS-induced production of IL-6: did not inhibit
  inhibition of LPS-induced production of IL-12p70: did not inhibit
  inhibition of LPS-induced production of MIP1-α: did not inhibit
  inhibition of LPS-induced production of RANTES: did not inhibit
[6]; RAW264.7, read-out: inhibition of LPS-induced production of BLC
  inhibition at 25 µM: ~100%
[6]; RAW264.7, read-out: inhibition of LPS-induced production of I-TAC
  inhibition at 25 µM: ~100%
[6]; RAW264.7, read-out: inhibition of LPS-induced production of IL-1α
  inhibition at 25 µM: ~20%
[6]; RAW264.7, read-out: inhibition of LPS-induced production of IL-2
  inhibition at 25 µM: ~100%
[6]; RAW264.7, read-out: inhibition of LPS-induced production of IL-3
  inhibition at 25 µM: ~100%
[6]; RAW264.7, read-out: inhibition of LPS-induced production of MCP-1
  inhibition at 25 µM: ~33%
[6]; RAW264.7, read-out: inhibition of LPS-induced production of TIMP-1
  inhibition at 25 µM: ~30%
[6]; RAW264.7, read-out: inhibition of LPS-induced production of TIMP-2
  inhibition at 25 µM: ~100%
[6]; RAW264.7, read-out: inhibition of LPS-induced production of TNF-α
  inhibition at 25 µM: ~24%
[6]; RAW264.7, read-out: inhibition of LPS-induced production of sTNFRI
  inhibition at 25 µM: ~63%
[6]; RAW264.7, read-out: inhibition of LPS-induced production of sTNFRII
  inhibition at 25 µM: ~20%
Influenza virus A/WS/33; EM-1421 3 μM, 6 μM, 12 μM and 25 μM, MOI 0.002, added 30 min after infection
  inhibition of A/WS/33 replication in RAW 264.7 macrophages: did not inhibit
Influenza virus A/WS/33; EM-1421 3-25 μM, MOI 0.002, added 30 min after infection
  enhancement of A/WS/33 production from RAW 264.7 macrophages: < 1 log
Influenza virus A/WS/33; pretreatment 2 hrs, EM-1421 25 μM, 36 hr time point
  enhancement of A/WS/33 growth in pretreated RAW 264.7 cells: 1 log
[7]; low MOI 0.002, 25 μM, 24 hrs
  block of influenza-induced increase in the production of TNF-α: completely blocked
[7]; low MOI dose response, 0.1, 1, 10, 25 μM tested
  final concentration as low as which increased TNF-α production (medium alone or medium and influenza) was inhibited: 0.1 µM
[7]; low MOI model, mock infected, serum-free infection medium, 25 μM, 24 hrs
  reduction of medium-induced TNF-α by EM-1421 alone: about 67%
[7]; low MOI time course, 4, 12, 24 hrs
  suppression of TNF-α induction over time: remained suppressed
[8]; Mus musculus, RAW264.7, high MOI dose response, 25 μM, read-out: inhibition of the increased production of TNF-α by influenza infection
  inhibition at 25 µM: ~60%
[8]; Mus musculus, RAW264.7, high MOI dose response, about 10 μM, read-out: inhibition of the increased production of TNF-α by influenza infection
  inhibition at 10 µM: ~34%
[8]; high MOI 5, 25 μM, 24 hrs (FIG. 13)
  block of influenza-induced increase in the production of TNF-α: completely blocked
[8]; high MOI model, mock infected, 25 μM, 24 hrs
  reduction of background TNF-α by EM-1421 alone: about 35%
[8]; 12 h
  suppression of the induction of TNF-α: 51%
[8]; 24 h
  suppression of the induction of TNF-α: 55%
[9]; high MOI 5, 25 μM
  reduction of influenza-induced increase in the production of PGE2: 32%
[9]; high MOI model, mock infected, 25 μM, PGE2 at low levels
  increase of the level of PGE2 by EM-1421 alone: about two fold
[10]; 0.002 MOI A/WS/33, 25 μM
  block of flu-induced production of G-CSF: blocked completely
  block of flu-induced production of MIP-1γ: ~60%
  block of flu-induced production of TNF-α: completely blocked
  inhibition of flu-induced production of MCP-1: did not inhibit
  inhibition of flu-induced production of sTNF RII: did not inhibit
[10]; [13]
  block of medium-induced production of MIP-1γ: completely blocked
  block of medium-induced production of TNF-α: completely blocked
[11]
  induction of the production of IFN-β: did not induce
[12]
  levels of IL-6 detected following treatment with EM-1421: 10 pg/mL

Reference: US20090155349A1, “METHODS OF TREATING INFLUENZA VIRAL INFECTIONS” (priority 2006, published 2009)
